{
  "source": "the supplement of paper PMC12645437",
  "about": "“Orthogonal IMiD-Degron Pairs Induce Selective Protein Degradation in Cells” (ACS Chemical Biology, 2025)",
  "note": "This is one part of the list.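 Further: jurkat cells carrying a lentiviral library of mutant zinc finger degrons fused to EGFP plus mCherry, mCherry+ cells FACS sorted, degron abundance counted by next-generation sequencing.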",
  "data": [
    {"target": "no compound (DMSO)", "experiment": "log2 fold change of degron read counts, EGFP-low vs EGFP+ sorted cells; higher = lower degron-EGFP level without compound (poor expression or instability)", "details": "compound: DMSO control; 18 h", "values": [
      {"sequence": "FTCDQCGAIFTQKGNLLRHIKL", "log2 fold change of degron read counts": -1.73},
      {"sequence": "FVCNQCGRPFTQKGNLLRHIKL", "log2 fold change of degron read counts": -1.04},
      {"sequence": "FCCPVCGAWFTQKGNLLRHIKL", "log2 fold change of degron read counts": 0.515},
      {"sequence": "FACNVCGARFTQKGNLLRHIKL", "log2 fold change of degron read counts": -0.517},
      {"sequence": "FMCEICGRPFTQKGNLLRHIKL", "log2 fold change of degron read counts": -1.45},
      {"sequence": "FICPQCGAHFTQKGNLLRHIKL", "log2 fold change of degron read counts": -0.253},
      {"sequence": "FMCSVCGHSFTQKGNLLRHIKL", "log2 fold change of degron read counts": -0.271},
      {"sequence": "FKCSVCGHCFTQKGNLLRHIKL", "log2 fold change of degron read counts": -0.861},
      {"sequence": "FWCEICGRVFTQKGNLLRHIKL", "log2 fold change of degron read counts": 0.938},
      {"sequence": "FWCEICGRTFTQKGNLLRHIKL", "log2 fold change of degron read counts": 0.0869},
      {"sequence": "FRCEICGHGFTQKGNLLRHIKL", "log2 fold change of degron read counts": -1.44},
      {"sequence": "FWCDQCGAGFTQKGNLLRHIKL", "log2 fold change of degron read counts": -0.767},
      {"sequence": "FVCPICGANFTQKGNLLRHIKL", "log2 fold change of degron read counts": -0.257},
      {"sequence": "LECPICGFVCTQKGNLLRHIKL", "log2 fold change of degron read counts": 0.468},
      {"sequence": "LGCEICGFICTQKGNLLRHIKL", "log2 fold change of degron read counts": 1.49},
      {"sequence": "FICPVCGADFTQKGNLLRHIKL", "log2 fold change of degron read counts": -0.265},
      {"sequence": "FGCEQCGANFTQKGNLLRHIKL", "log2 fold change of degron read counts": -0.799},
      {"sequence": "LGCPICGFECTQKGNLLRHIKL", "log2 fold change of degron read counts": 0.457},
      {"sequence": "FSCNQCGANFTQKGNLLRHIKL", "log2 fold change of degron read counts": -1.21},
      {"sequence": "FCCNQCGRLFTQKGNLLRHIKL", "log2 fold change of degron read counts": 0.354},
      {"sequence": "FYCPICGHTFTQKGNLLRHIKL", "log2 fold change of degron read counts": 0.146},
      {"sequence": "FTCSVCGHIFTQKGNLLRHIKL", "log2 fold change of degron read counts": -0.602},
      {"sequence": "LWCNQCGFICTQKGNLLRHIKL", "log2 fold change of degron read counts": 2.94},
      {"sequence": "FLCDQCGAWFTQKGNLLRHIKL", "log2 fold change of degron read counts": -0.0628},
      {"sequence": "FRCSVCGHAFTQKGNLLRHIKL", "log2 fold change of degron read counts": -0.429},
      {"sequence": "FNCPVCGAWFTQKGNLLRHIKL", "log2 fold change of degron read counts": 0.34},
      {"sequence": "FFCPICGHPFTQKGNLLRHIKL", "log2 fold change of degron read counts": 0.835},
      {"sequence": "FQCPICGHMFTQKGNLLRHIKL", "log2 fold change of degron read counts": 0.364},
      {"sequence": "FMCPVCGAMFTQKGNLLRHIKL", "log2 fold change of degron read counts": 0.994},
      {"sequence": "FMCDICGAKFTQKGNLLRHIKL", "log2 fold change of degron read counts": -0.57},
      {"sequence": "FGCPICGATFTQKGNLLRHIKL", "log2 fold change of degron read counts": -0.404},
      {"sequence": "FICPICGHGFTQKGNLLRHIKL", "log2 fold change of degron read counts": 0.233},
      {"sequence": "FSCEQCGAQFTQKGNLLRHIKL", "log2 fold change of degron read counts": -3.15},
      {"sequence": "FKCDQCGATFTQKGNLLRHIKL", "log2 fold change of degron read counts": -1.63},
      {"sequence": "LHCPICGFACTQKGNLLRHIKL", "log2 fold change of degron read counts": 0.531},
      {"sequence": "FKCEICGHNFTQKGNLLRHIKL", "log2 fold change of degron read counts": -1.42},
      {"sequence": "FFCEQCGAHFTQKGNLLRHIKL", "log2 fold change of degron read counts": -1.33},
      {"sequence": "FMCEICGATFTQKGNLLRHIKL", "log2 fold change of degron read counts": -1.81},
      {"sequence": "FQCNQCGRKFTQKGNLLRHIKL", "log2 fold change of degron read counts": -3.07},
      {"sequence": "FCCDVCGANFTQKGNLLRHIKL", "log2 fold change of degron read counts": -1.74},
      {"sequence": "FLCNVCGARFTQKGNLLRHIKL", "log2 fold change of degron read counts": -0.907},
      {"sequence": "FLCPICGAIFTQKGNLLRHIKL", "log2 fold change of degron read counts": 0.692},
      {"sequence": "FHCNICGAAFTQKGNLLRHIKL", "log2 fold change of degron read counts": -0.93},
      {"sequence": "FCCDQCGALFTQKGNLLRHIKL", "log2 fold change of degron read counts": -1.68},
      {"sequence": "FKCPICGHMFTQKGNLLRHIKL", "log2 fold change of degron read counts": -0.875},
      {"sequence": "FKCEICGRGFTQKGNLLRHIKL", "log2 fold change of degron read counts": -1.24},
      {"sequence": "FYCPICGREFTQKGNLLRHIKL", "log2 fold change of degron read counts": -0.354},
      {"sequence": "FTCSVCGHFFTQKGNLLRHIKL", "log2 fold change of degron read counts": 0.406},
      {"sequence": "FLCEICGHPFTQKGNLLRHIKL", "log2 fold change of degron read counts": -0.603},
      {"sequence": "FFCDQCGAEFTQKGNLLRHIKL", "log2 fold change of degron read counts": -1.56}
    ]}
  ]
}
